Laboratory results reported in PubChem BioAssay AID463173 (ICCB-Longwood Screening Facility, Harvard Medical School, 2010).
The campaign covered roughly 52,000 compounds. About 4,300 (8.3%) were called active. No stated cut-off is given here; in the data, active means survival mostly below about 52% (no sharp cut-off); inactive means mostly above about 56%. Some of the results follow.

Tested on: DeltatarO mutant
Assay: S. aureus survival, RN4220 and DeltatarO strains – OD600, teichoic acid synthesis inhibitors, primary screen (AID 463173)
Settings: S. aureus RN4220 wild type/DeltatarO growth, OD600, 18 h, active compounds read low, screened at 18.75 µg/mL (by protocol)

| SMILES | survival |
| --- | --- |
| CCC(=O)N1CCc2cc(S(=O)(=O)NCCC(=O)Nc3ccc(N(CC)CC)cc3C)ccc21 | inactive: 77% |
| CCc1c(C)c2cc3c(c(C)c2oc1=O)OCN(CCc1ccccc1F)C3 | inactive: 101% |
| CC1CCCCN1S(=O)(=O)c1ccc(S(=O)(=O)NCc2ccc3c(c2)OCO3)cc1 (centres undefined) | inactive: 85% |
| O=C(CSc1nc2ccccc2nc1Cc1ccc(Cl)cc1)N1CCN(c2ccccc2)CC1 | inactive: 84% |
| O=C(CSc1nc(-c2cccc(F)c2)[nH]c1-c1ccccc1)Nc1ccc2c(c1)OCO2 | active: 32% |
| Cc1ccc(-n2ncc(C(=O)NCc3ccco3)c2C2CCN(C(=O)OC(C)(C)C)CC2)cc1C | inactive: 84% |
| COc1cc(NC(=O)c2cc3cc4ccc(C)cc4nc3o2)cc(OC)c1OC | inactive: 89% |
| CCc1ccccc1N(C)C(=O)C1CCCN(c2ncnc3c2nc2n3CCCCC2)C1 (centres undefined) | inactive: 83% |
| CCOC(=O)C1(Cc2ccc(O)cc2)NC(c2ccccc2F)C2C(=O)N(C)C(=O)C21 (centres undefined) | inactive: 82% |
| CCOC(=O)c1ccc(NC(=O)c2cn3c4c(ccc(Cl)c4c2=O)OC(C)C3)cc1 (centres undefined) | inactive: 72% |
| COc1cc(OC)c(N(C)C(=O)Nc2cn(CC(C)C)c(=O)c3ccccc23)cc1Cl | inactive: 76% |
| CCCc1nn2c(=O)cc(COC(=O)CNC(=O)COc3ccc(C)cc3)nc2s1 | inactive: 94% |
| Cc1ccc(-c2nc(C)c(CCNC(=O)c3ccccc3Br)s2)cc1 | inactive: 72% |
| CSc1nc2ccccc2n1CC(=O)Nc1c(C)cccc1C | inactive: 93% |
| COc1ccc(NC2=C(c3ccc(C(F)(F)F)cc3)C(=O)c3ccccc32)cc1 | inactive: 79% |
| CCc1ccc(C2C(C#N)=C(N)Oc3cc(N)ccc32)cc1 (centres undefined) | inactive: 102% |
| CCOc1ccc(C(=O)N(C)CC2COc3ccccc3O2)cc1 (centres undefined) | inactive: 90% |
| COc1cccc(NC(=O)CN2C(=O)c3ccccc3Sc3ncccc32)c1 | inactive: 95% |
| Cc1ccc(-n2nc(C)c3c(C(F)(F)F)cc(-c4cccnc4)nc32)cc1Cl | inactive: 53% |
| COc1ccccc1C(=O)Nc1c(C(=O)NC(C)(C)C)oc2ccccc12 | inactive: 99% |
| CCc1ccc(Nc2nc3ccccc3nc2NS(=O)(=O)c2ccccc2)cc1 | active: 28% |
| Cc1cccc(-n2c(=O)c3ccccc3n(Cc3ccc(F)cc3)c2=O)c1 | inactive: 77% |

| SMILES | survival |
| --- | --- |
| COc1ccc(NC(=O)C2=C(C)Nc3nc(SCc4ccc(Cl)cc4)nn3C2c2cccc(OC)c2OC)cc1 (centres undefined) | inactive: 67% |
| O=C(Cn1c(=O)nc(-c2ccccc2)c2ccccc21)Nc1ccc(Cl)cc1F | inactive: 73% |
| CCCCOC(=O)c1ccc(NC(=O)c2sc3nc(C)cc(C)c3c2N)cc1 | inactive: 65% |
| COc1ccc(N(C)C(=O)Cn2cc(S(=O)(=O)N3CCN(c4ccccc4F)CC3)c3ccccc3c2=O)c(OC)c1 | inactive: 97% |
| CC1CCN(c2ccc(-c3cccc(NS(=O)(=O)c4ccc(F)cc4F)c3)nn2)CC1 | inactive: 102% |
| CC1CCN(C(=O)CSc2nc(-c3ccc(F)cc3)cc(C(F)(F)F)n2)CC1 | active: 37% |
| CCOC(=O)c1sc(NC(=O)c2c(-c3ccccc3)c(-c3ccccc3)nn(C)c2=O)nc1C | inactive: 48% |
| Cn1c(=O)c(C(=O)NC2CCCCCC2)c(O)c2ccccc21 | inactive: 65% |
| Cc1nc2cccnc2n1C1CCN(C(=O)Nc2ccc(Cl)cc2)CC1 | inactive: 81% |
| COC(=O)Cc1c(C)c2ccc3c(c2oc1=O)CN(Cc1ccccc1Cl)CO3 | inactive: 84% |
| CCOc1ccc(-c2c(C)nn3c(C)c(C(=O)NCCc4ccc(C)cc4)cnc23)cc1OCC | inactive: 77% |
| CCc1c(C)sc2c1CCN(Cc1ccccc1F)C2c1ccccc1 (centres undefined) | inactive: 102% |
| O=C(NCCSc1c[nH]c2ccccc12)c1ccccc1Cl | inactive: 57% |
| COc1ccc(NC(=O)C2CCN(S(=O)(=O)c3c(C)noc3/C=C/c3cccs3)CC2)cc1Cl | inactive: 80% |
| c1ccc(-c2cc3n(c2)CCc2ccccc2-3)cc1 | inactive: 76% |
| O=S(=O)(NC1CCCCC1)c1ccc(S(=O)(=O)N2CCN3CCCC3C2)cc1 (centres undefined) | inactive: 92% |
| COc1cccc(Cn2cc(C(=O)c3ccc(Cl)cc3)c(=O)c3ccccc32)c1 | inactive: 96% |
| N#C/C(=C\c1ccc(-c2ccc(Br)cc2)o1)C(=O)OC1CCCCC1 | inactive: 104% |
| CCSc1ncc(Cl)c(C(=O)Nc2cccc(Cl)c2)n1 | inactive: 59% |
| COC(=O)c1ccc(CSC(=N)N)o1 | inactive: 69% |
| CCSc1nnc(CNc2ccc(F)cc2)n1-c1ccc(C)cc1 | inactive: 87% |
| COCCNC(=O)c1ccccc1NC(=O)c1nsc2ccccc12 | inactive: 77% |
